Test results from the supplement of paper PMC8728848.
The other results are listed elsewhere or left out.

Experiments:
Assay in all cases: glycan array binding signal (z-score within array); higher = stronger binding
Conditions in all cases: glycan notation: IUPAC condensed, linker removed; mutation: N224Q
[1] = biological target: Gal(b1-3)[Fuc(a1-4)]GlcNAc(b1-3)Gal(b1-4)[Fuc(a1-3)]GlcNAc
Summary of the method: (§1)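 Glycan array data were curated from 3228 arrays in the Consortium for Functional Glycomics database and kept only where the protein sequence was available. Glycan names were converted to IUPAC-condensed notation, and columns mapping to the same glycan were averaged. The binding signal is a within-array Z-score, averaged across arrays of the same protein sequence at different concentrations or buffers and across linkers. Negative Z-scores can be read as non-binding.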

[2] = biological target: Gal(b1-3)[Fuc(a1-4)]GlcNAc(b1-6)GalNAc
Summary of the method: as §1

[3] = biological target: Gal(b1-3)[GlcNAc(b1-6)]GalNAc
Summary of the method: as §1

[4] = biological target: Gal(b1-3)[Neu5Ac(a2-6)]GalNAc
Summary of the method: as §1

[5] = biological target: Gal(b1-3)[Neu5Ac(a2-6)]GlcNAc(b1-4)Gal(b1-4)Glc
Summary of the method: as §1

[6] = biological target: Gal(b1-3)[Neu5Ac(b2-6)]GalNAc
Summary of the method: as §1

[7] = biological target: Gal(b1-4)Gal
Summary of the method: as §1

[8] = biological target: Gal(b1-4)GalNAc(a1-3)[Fuc(a1-2)]Gal(b1-4)GlcNAc
Summary of the method: as §1

[9] = biological target: Gal(b1-4)GalNAc(b1-3)[Fuc(a1-2)]Gal(b1-4)GlcNAc
Summary of the method: as §1

[10] = biological target: Gal(b1-4)Glc
Summary of the method: as §1

[11] = biological target: Gal(b1-4)Glc6S
Summary of the method: as §1

[12] = biological target: Gal(b1-4)GlcNAc
Summary of the method: as §1

[13] = biological target: Gal(b1-4)GlcNAc(a1-6)Gal(b1-4)GlcNAc
Summary of the method: as §1

[14] = biological target: Gal(b1-4)GlcNAc(b1-2)Man
Summary of the method: as §1

[15] = biological target: Gal(b1-4)GlcNAc(b1-2)Man(a1-3)Man(b1-4)GlcNAc(b1-4)GlcNAc
Summary of the method: as §1

[16] = biological target: Gal(b1-4)GlcNAc(b1-2)Man(a1-3)[Gal(b1-4)GlcNAc(b1-2)Man(a1-6)]Man(b1-4)GlcNAc(b1-4)GlcNAc
Summary of the method: as §1

[17] = biological target: Gal(b1-4)GlcNAc(b1-2)Man(a1-3)[Gal(b1-4)GlcNAc(b1-2)Man(a1-6)]Man(b1-4)GlcNAc(b1-4)[Fuc(a1-6)]GlcNAc
Summary of the method: as §1

[18] = biological target: Gal(b1-4)GlcNAc(b1-2)Man(a1-3)[Gal(b1-4)GlcNAc(b1-2)Man(a1-6)][Gal(b1-4)GlcNAc(b1-4)]Man(b1-4)GlcNAc(b1-4)[Fuc(a1-6)]GlcNAc
Summary of the method: as §1

[19] = biological target: Gal(b1-4)GlcNAc(b1-2)Man(a1-3)[Gal(b1-4)GlcNAc(b1-2)Man(a1-6)][GlcNAc(b1-4)]Man(b1-4)GlcNAc(b1-4)[Fuc(a1-6)]GlcNAc
Summary of the method: as §1

[20] = biological target: Gal(b1-4)GlcNAc(b1-2)Man(a1-3)[GlcNAc(b1-2)Man(a1-6)]Man(b1-4)GlcNAc(b1-4)GlcNAc
Summary of the method: as §1

[21] = biological target: Gal(b1-4)GlcNAc(b1-2)Man(a1-3)[GlcNAc(b1-4)][Gal(b1-4)GlcNAc(b1-2)Man(a1-6)]Man(b1-4)GlcNAc(b1-4)GlcNAc
Summary of the method: as §1

[22] = biological target: Gal(b1-4)GlcNAc(b1-2)Man(a1-3)[Man(a1-6)]Man(b1-4)GlcNAc(b1-4)GlcNAc
Summary of the method: as §1

[23] = biological target: Gal(b1-4)GlcNAc(b1-2)Man(a1-6)Man(b1-4)GlcNAc(b1-4)GlcNAc
Summary of the method: as §1

[24] = biological target: Gal(b1-4)GlcNAc(b1-2)Man(a1-6)[GlcNAc(b1-2)Man(a1-3)]Man(b1-4)GlcNAc(b1-4)GlcNAc
Summary of the method: as §1

[25] = biological target: Gal(b1-4)GlcNAc(b1-2)Man(a1-6)[Man(a1-3)]Man(b1-4)GlcNAc(b1-4)GlcNAc
Summary of the method: as §1

[26] = biological target: Gal(b1-4)GlcNAc(b1-2)[Gal(b1-4)GlcNAc(b1-4)]Man(a1-3)[Gal(b1-4)GlcNAc(b1-2)Man(a1-6)]Man(b1-4)GlcNAc(b1-4)GlcNAc
Summary of the method: as §1

[27] = biological target: Gal(b1-4)GlcNAc(b1-2)[Gal(b1-4)GlcNAc(b1-4)]Man(a1-3)[Gal(b1-4)GlcNAc(b1-2)[Gal(b1-4)GlcNAc(b1-6)]Man(a1-6)]Man(b1-4)GlcNAc(b1-4)GlcNAc
Summary of the method: as §1

[28] = biological target: Gal(b1-4)GlcNAc(b1-2)[Gal(b1-4)GlcNAc(b1-4)]Man(a1-3)[GlcNAc(b1-4)][Gal(b1-4)GlcNAc(b1-2)Man(a1-6)]Man(b1-4)GlcNAc(b1-4)GlcNAc
Summary of the method: as §1

[29] = biological target: Gal(b1-4)GlcNAc(b1-2)[Gal(b1-4)GlcNAc(b1-4)]Man(a1-3)[GlcNAc(b1-4)][Gal(b1-4)GlcNAc(b1-2)[Gal(b1-4)GlcNAc(b1-6)]Man(a1-6)]Man(b1-4)GlcNAc(b1-4)GlcNAc
Summary of the method: as §1

[30] = biological target: Gal(b1-4)GlcNAc(b1-2)[Gal(b1-4)GlcNAc(b1-6)]Man(a1-6)[Gal(b1-4)GlcNAc(b1-2)Man(a1-3)]Man(b1-4)GlcNAc(b1-4)GlcNAc
Summary of the method: as §1

[31] = biological target: Gal(b1-4)GlcNAc(b1-2)[Gal(b1-4)GlcNAc(b1-6)]Man(a1-6)[Gal(b1-4)GlcNAc(b1-2)Man(a1-3)]Man(b1-4)GlcNAc(b1-4)[Fuc(a1-6)]GlcNAc
Summary of the method: as §1

[32] = biological target: Gal(b1-4)GlcNAc(b1-2)[Gal(b1-4)GlcNAc(b1-6)]Man(a1-6)[GlcNAc(b1-4)][Gal(b1-4)GlcNAc(b1-2)Man(a1-3)]Man(b1-4)GlcNAc(b1-4)GlcNAc
Summary of the method: as §1

[33] = biological target: Gal(b1-4)GlcNAc(b1-2)[Gal(b1-4)GlcNAc(b1-6)]Man(a1-6)[GlcNAc(b1-4)][Gal(b1-4)GlcNAc(b1-2)[Gal(b1-4)GlcNAc(b1-4)]Man(a1-3)]Man(b1-4)GlcNAc(b1-4)[Fuc(a1-6)]GlcNAc
Summary of the method: as §1

[34] = biological target: Gal(b1-4)GlcNAc(b1-3)Gal(b1-3)GalNAc
Summary of the method: as §1

[35] = biological target: Gal(b1-4)GlcNAc(b1-3)Gal(b1-3)GlcNAc
Summary of the method: as §1

[36] = biological target: Gal(b1-4)GlcNAc(b1-3)Gal(b1-4)Glc
Summary of the method: as §1

[37] = biological target: Gal(b1-4)GlcNAc(b1-3)Gal(b1-4)GlcNAc
Summary of the method: as §1

[38] = biological target: Gal(b1-4)GlcNAc(b1-3)Gal(b1-4)GlcNAc(b1-2)Man(a1-3)[Gal(b1-4)GlcNAc(b1-3)Gal(b1-4)GlcNAc(b1-2)Man(a1-6)]Man(b1-4)GlcNAc(b1-4)GlcNAc
Summary of the method: as §1

B1: AAL (Aleuria aurantia) (protein)
chain: MPTEFLYTSKIAAISWAATGGRQQRVYFQDLNGKIREAQRGGDNPWTGGSSQNVIGEAKLFSPLAAVTWKSAQGIQIRVYCVNKDNILSEFVYDGSKWITGQLGSVGVKVGSNSKLAALQWGGSESAPPNIRVYYQKSNGSGSSIHEYVWSGKWTAGASFGSTVPGTGIGATAIGPGRLRIYYQATDNKIREHCWDSNSWYVGGFSASASAGVSIAAISWGSTPQIRVYWQKGREELYEAAYGGSWNTPGQIKDASRPTPSLPDTFIAANSSGNIDISVFFQASGVSLQQWQWISGKGWSIGAVVPTGTPAGW
[1]
  glycan array binding signal (z-score): 1
[2]
  glycan array binding signal (z-score): -0.288
[3]
  glycan array binding signal (z-score): -0.32
[4]
  glycan array binding signal (z-score): -0.312
[5]
  glycan array binding signal (z-score): -0.318
[6]
  glycan array binding signal (z-score): -0.316
[7]
  glycan array binding signal (z-score): -0.313
[8]
  glycan array binding signal (z-score): -0.307
[9]
  glycan array binding signal (z-score): -0.315
[10]
  glycan array binding signal (z-score): -0.315
[11]
  glycan array binding signal (z-score): -0.318
[12]
  glycan array binding signal (z-score): -0.324
[13]
  glycan array binding signal (z-score): -0.332
[14]
  glycan array binding signal (z-score): -0.297
[15]
  glycan array binding signal (z-score): -0.307
[16]
  glycan array binding signal (z-score): -0.316
[17]
  glycan array binding signal (z-score): -0.216
[18]
  glycan array binding signal (z-score): 0.102
[19]
  glycan array binding signal (z-score): 0.102
[20]
  glycan array binding signal (z-score): -0.316
[21]
  glycan array binding signal (z-score): -0.308
[22]
  glycan array binding signal (z-score): -0.29
[23]
  glycan array binding signal (z-score): -0.318
[24]
  glycan array binding signal (z-score): -0.304
[25]
  glycan array binding signal (z-score): -0.316
[26]
  glycan array binding signal (z-score): -0.265
[27]
  glycan array binding signal (z-score): -0.309
[28]
  glycan array binding signal (z-score): -0.312
[29]
  glycan array binding signal (z-score): -0.316
[30]
  glycan array binding signal (z-score): -0.303
[31]
  glycan array binding signal (z-score): 1.21
[32]
  glycan array binding signal (z-score): -0.297
[33]
  glycan array binding signal (z-score): -0.304
[34]
  glycan array binding signal (z-score): -0.308
[35]
  glycan array binding signal (z-score): -0.3
[36]
  glycan array binding signal (z-score): -0.306
[37]
  glycan array binding signal (z-score): -0.319
[38]
  glycan array binding signal (z-score): -0.111
